From the supplement of paper PMC10126150
Values marked as one replicate rest on one cluster of the flow cell; about a third of the high ones do not repeat.

System: ATP
Assay: switch fluorescence ratio, 500 uM ATP over buffer (Cy3 cluster intensity, sum of 5 cycles each) (fold (ratio)); higher = stronger signal-on switching upon ATP binding; sequences stand for … in TCGTCGGCAGCGTCAGATGTGTATAAGAGACAGTTTTTTTTTTTTTTTTTTTTTTTTT…TC
Settings: aptamer strand: ATP DNA aptamer (quencher-CACCTGGGGGAGTATTGCGGAGGAAGG + anchor), 100 nM annealed; ATP concentration: 500 uM; one replicate
Summary of the method: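 The fluorescence ratio divides summed target-cycle Cy3 intensity by summed buffer-cycle Cy3 intensity for each cluster and is averaged per switch-domain sequence. Cy3-labelled switching-strand clusters on a modified Illumina MiSeq flow-cell were annealed to 100 nM quencher-labelled ATP aptamer, then imaged in selection buffer and again after 15 min with 500 uM ATP at 22 °C. Five such cycles were run, with NaOH stripping and re-annealing between them, and clusters outside 100-1000 RFU were excluded.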
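Note: ATP exposure 15 min at 22 °C before imaging.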

Sequence | switch fluorescence ratio
TAATCGAGAG | 1.01
CATCATTAGT | 1.02
TCCCGATCGC | 2.15
TTGGCCGAGA | 0.989
ATGCTCCCCA | 2.58
TTTCCTACGT | 0.997
TGCGTAACAG | 1.01
GGTTAATAAA | 1.01
TGTATGCCGG | 1.04
TAAAGCGCGC | 0.95
TAATAACCGA | 1.13
TGCAGACCGA | 1.07
GTTCGGCGGG | 0.995
AGAGGTACCA | 1.02
GGAATACTGG | 1.21
GCTGTATGGA | 1.04
AGCCCATGG | 1.04
AGAGACCCAT | 0.979
TATTCCTTTG | 1.03
CAGCATATCC | 2.08
GCAGTCCGGA | 0.991
TAGTGGTGC | 1.28
GACCGGGACG | 1.01
ATACCGATAA | 1.07
TCCACGGGGG | 1.1
AGAGCGTTGA | 1.08

Sequence | switch fluorescence ratio
TTTTACACGG | 0.993
TCAATTTTTC | 1.01
TGTTATTCGG | 0.998
TCGCCTTGAT | 1
AAAAATAGGT | 1
CCATATAGGT | 1.04
TGGTGTACGA | 1.02
TGCTAAGCCA | 1.06
TTTTGGATGG | 0.961
TGCACGAGTC | 1.03
TGGATATGCA | 1.01
ATGAAGGGG | 1.02
AGCCGGTCGC | 1.02
TGCCCTGGGG | 1.1
CTTGGGTGTA | 0.966
AAGAGGGAC | 1
GCATGGGGAA | 1.02
CGTGGGACTA | 0.952
TCGTACACAA | 1.69
GTATATTAGT | 0.989
GAAGGGTTAG | 1.01
CTTGCCAGCG | 1.06
ATGAATGGAT | 0.987
GCTCCATTTC | 1.07
TCCTGCGGTT | 1.24
TGGGGAGCCG | 0.999

Sequence | switch fluorescence ratio
TATCCCAGT | 0.997
CATGGGGGAA | 1.01
CTCGCGTTGG | 0.994
CTTGATAAGG | 0.988
ATATCTATCT | 0.996
CAATATGGGG | 0.999
TGTTGGGCC | 0.991
TTATGAATG | 0.966
CAGTCAAAC | 1.21
TACGAGGCAG | 1.55
AATGCACGGT | 1.03
ACAGTCTGAT | 0.944
CAGCTGGCGG | 1.01
AAGGGGTCAG | 1.01
GCGTGCGTCT | 0.97
GACTACCTGG | 1.1
CATTTAACGG | 1.01
AGTTAGGGAA | 1
CAGGATAGA | 0.997
ACTTGGTTGC | 1.02
TATACTATTC | 0.954
TTTGCATTA | 1.2
AATCATGCTT | 0.979
GCTAGACGCC | 1.1
CATGACAAGT | 0.992
CTGATTTGCC | 1.03

Sequence | switch fluorescence ratio
GTCCCCTATT | 1.02
ACTGCCGCGC | 1.23
AGGTTGAATG | 0.983
CTGTTGGCTA | 1.02
TGCTGGGTTC | 1.03
CGTAACTGGG | 1.03
TGGAAGGCAA | 1
GTAAGAATAT | 1.01
AATCCGAATA | 1.34
ACGCAAATTG | 1.36
TCACAGGGAT | 1.03
GATGCGAAAG | 0.967
TCGTGTACAG | 0.946
TTGAGGTGGT | 0.977
TAATAGTCTT | 0.991
ACGGTTTTGG | 0.979
TACGGGGCTT | 4.13
GGGAGTATT | 1.08
TTAAGTCCAG | 0.994
GGGGGCCTTC | 1.08
GGTCTAAATG | 1.02
TGCTCGCGTT | 0.994
CGAATCTGGA | 1.04
TATCATTAAC | 0.964
GCTTGGGAT | 0.994
TACTCCGAC | 1.91

Sequence | switch fluorescence ratio
GAACCTAGCG | 1.06
TTCTTTTGT | 0.961
GGCGGAGATT | 1
CACTGATGTG | 0.991
CTGAACCCCA | 1.05
GATTCACTGC | 0.987
TGCGACTATC | 1.07
CGTACTGGGC | 1.09
TCATGAGGAA | 1
GGATTCGTCT | 0.898
CACCAACGT | 1.39
ATATCAGTTA | 0.975
ACGTTCGTCT | 0.995
TATAATGTCC | 0.956
CACCGTCCTG | 1.05
ATGAAAGT | 1.04
CAACAGCTAC | 4.08
CCTGGTGTAC | 2.08
TTAGGTTCGG | 0.935
ACTTTGGAAA | 0.995
TCACAATCAT | 1.04
AGCGAGTATT | 0.969
TTAAAGATTC | 1.03
ATTAATCAGG | 1.03
TCAGTCTTC | 1
AGGGTGACTG | 1.09

Sequence | switch fluorescence ratio
CACGGGCTAT | 1.01
TGCTTGCGTG | 0.991
AGGCACGGGA | 1.01
TATGAAACAT | 1
CTTCTATGCG | 0.959
GGGATGTGGC | 0.926
GATGGATGGC | 1.03
CCGATCCTTA | 1.02
GACTTGATGT | 1.03
CTTGTGTAT | 1
AAAAGGGAC | 1.1
GCTCAAATAC | 3.03
AGATATGAGT | 0.947
CAGAGCATTC | 2.59
GCCTCTCAGG | 0.979
AAGATAGTAT | 0.967
GGTAGCGACG | 0.995
CATGAGTTA | 1.03
TTAAAATCCG | 1.05
AGTAAGGACA | 1.04
TACTTATCAT | 1.18
ATCACGAGAG | 1.03
GATGGTGACG | 0.949
AAAATGATAA | 1.01
CGCGGGCAG | 0.99
AACATAATGG | 0.986

Sequence | switch fluorescence ratio
TTTGACCCCG | 0.987
ACGGGCGGTT | 0.977
CTCCTTACTA | 1.13
GTTGTTCTCG | 1.02
TTTGGAGCGA | 1.02
TTTACCATTC | 0.989
ATTGTATCGT | 0.991
TCTATGTTGC | 1.01
CTGCTTTCTG | 1.04
AATGAGGACT | 0.955
CTTGTTGACC | 0.989
TCTGGAGACG | 1.1
ACATATGGAA | 1.06
TGGTATG | 0.965
GATACGTTCG | 0.993
ACATCATCTA | 1.03
CGGCGACAGC | 0.936
ATACGTGAAG | 1.02
AAAATGAACA | 0.999
TTGCGATGAA | 1.04
TAGGGTAGGA | 1.01
GTTATGTCGA | 0.957
AAAAGCAATG | 1.13
CCACGAGT | 1.01
AATGGACAA | 1
TGCTTGGTGG | 0.99

Sequence | switch fluorescence ratio
CAAGCAGTTT | 1.04
TACTAGAGCT | 0.956
TATAGATCCC | 0.965
TGTTGGTAAG | 0.972
GTTGTCAATC | 1.09
CTATCTTTC | 1.01
GGTCTAAACA | 1.01
AATCGTCA | 1.05
TTAGTTAGCT | 1
TTCGGCTTAC | 1.79
TGCATACCGG | 1.02
AGGTGGTTTG | 1.06
TCTGACCAGA | 1.01
GGAAGTATGG | 1.01
TATATTAAAT | 1.02
AGAACCGTGC | 1.36
GATTTGTTAT | 1
GTGCCTCGAT | 0.991
CTGACTGCC | 1.25
